Here are results for 57 sequences from the supplement of paper PMC11417369.

± gives the standard deviation of the averaged measurements. The list shows a part of the results.

The subject of this assay is PfAP2-LT AP2 domain (GST-tagged). As to the kind of experiment: gcPBM binding intensity (ln(normalized median fluorescence intensity)); higher = stronger DNA binding. Summed up: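 Using an Agilent 4 × 180k array, primer-extended double-stranded 36-bp intergenic genomic probes and negative controls were exposed for 1 h to GST-fused P. falciparum DNA-binding domains expressed in E. coli. Binding was carried out in 1× PBS with 1% milk, 0.2 mg/ml BSA, 0.5% salmon testes DNA and 0.03% Triton X-100, and protein was detected with Alexa488 anti-GST antibody and a 488 nm scan. Binding intensity is the highest Masliner-normalised natural-log median intensity across replicate spots of either probe orientation.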
Regarding “AACATACGACAATACGCACACATATAAGTACATATT [CACACA_site8584]”, the “gcPBM binding intensity (ln)” value is 9.53 ± 0.4.

Regarding “TTCAATTATATTCTTTGTACGAATCTTCTATAAATT [XGTACX_site4346]”, the “gcPBM binding intensity (ln)” value was determined as 8.82 ± 0.43.

As for “TACTTCTTTTTTATTTATTTTACTTTTTATTCTGTA [CACACA_negctrl_site772]”, the “gcPBM binding intensity (ln)” value amounted to 8.8 ± 0.64.

As for “GCTTATGCTCAATATTGTACTTTTTTTATTTATTCA [XGTACX_site8863]”, the “gcPBM binding intensity (ln)” value is 8.88 ± 0.51.

“ATTTAATTTTTTTTTAAACACACATTTTTTTATTTA [CACACA_site8880]”: the “gcPBM binding intensity (ln)” value came out at 8.72 ± 0.45.

On to “AAATAAATAATAAATAAATAAATAAAATACCAAATA [GTGCAC_negctrl_site620]”, for which the “gcPBM binding intensity (ln)” value came out at 8.87 ± 0.53.

As to “ATATATATATATATATGTACATATACACATGTGTGC [XGTACX_site168]”, the “gcPBM binding intensity (ln)” value worked out at 10.14 ± 0.099.

Regarding “TATAAATATGTGTATACACACCTGATAAAGGTATAT [CACACA_site7283]”, the “gcPBM binding intensity (ln)” value is 9.1 ± 0.45.

Regarding “AAAATTATTAAATATGTACACACGTACATTTTATAA [CACACA_site8750]”, the “gcPBM binding intensity (ln)” value came to 8.67 ± 0.38.

With “ATATAAGTACGGCATGCATGCACATTTTTTTATTCC [TGCATGCA_site101]”, the “gcPBM binding intensity (ln)” value was 9.34 ± 0.29.

Take “TACAGACATAGACACACACACACGCATAAAAAAAAA [CACACA_site6820]”: the “gcPBM binding intensity (ln)” value amounted to 10 ± 0.51.

“TTATAAATTCAATGTACTACACAAAATGAATTTAAT [XGTACX_site6683]”: the “gcPBM binding intensity (ln)” value came to 8.53 ± 0.35.

Turning to “TTCCTATAAAAAAACACACACATATAAATATAAATA [CACACA_site7154]”, the “gcPBM binding intensity (ln)” value came to 9.16 ± 0.3.

For the sequence “AAAAAAAAAAAAAACACACACACACGCAAATACATA [CACACA_site6474]”, the “gcPBM binding intensity (ln)” value was 10.3 ± 0.27.

Turning to “TCCTTAAATATAAAGGTGCTATGCAGACCTTATGTT [GTGCAC_site9472]”, the “gcPBM binding intensity (ln)” value worked out at 8.53 ± 0.45.

As to “TGGCTTATTCAGAAATGTACACATATAAATATATAT [XGTACX_site3765]”, the “gcPBM binding intensity (ln)” value was determined as 8.64 ± 0.42.

With “TTTCTTTTAATTATCCGTACACAAACAATAAAATAA [XGTACX_site7841]”, the “gcPBM binding intensity (ln)” value stood at 8.34 ± 0.32.

For the sequence “AAAATAATATATGTATGTACACAATTATTTATAAGT [XGTACX_site7267]”, the “gcPBM binding intensity (ln)” value came to 8.86 ± 0.41.

As for “TGAATAAATAAGATACGTACACACATATACAAAATA [XGTACX_site7758]”, the “gcPBM binding intensity (ln)” value was found to be 9.29 ± 0.39.

Take “TACATAAACATTTATACACACATTATATATACATAT [CACACA_site8028]”: the “gcPBM binding intensity (ln)” value was 9.14 ± 0.43.

As to “TGTGCTCGCTATTACACACTCATTGGGATAAAATTG [CACACA_site2029]”, the “gcPBM binding intensity (ln)” value turned out to be 8.73 ± 0.34.

Turning to “ATATACCATATGCATGGTACACATTTACAACAAAAA [XGTACX_site3142]”, the “gcPBM binding intensity (ln)” value worked out at 8.71 ± 0.4.

Regarding “AATGTATAAAAGTTTTGTACATATTCTCACACATAT [XGTACX_site965]”, the “gcPBM binding intensity (ln)” value stood at 9.1 ± 0.43.

“TAGTTGTGAGTTACATGTACATGTATTTATTTTTTA [XGTACX_site7088]”: the “gcPBM binding intensity (ln)” value turned out to be 9.04 ± 0.42.

“ATAACGTAAACAATGTGGACACATACATAAATATAT [XGTACX_site707]”: the “gcPBM binding intensity (ln)” value stood at 9.05 ± 0.47.

Consider “TTTATTAAATAAAGCACACACAACAACTTTTCACAA [CACACA_site4132]”, for which the “gcPBM binding intensity (ln)” value turned out to be 9.22 ± 0.28.

Consider “GATAACAATATGTGTACACATTTATATCTCCACATA [CACACA_site5442]”, for which the “gcPBM binding intensity (ln)” value is 8.98 ± 0.49.

Turning to “TTACAAAACCGATGTTGTACATTCAATAGATAATGT [XGTACX_site3806]”, the “gcPBM binding intensity (ln)” value came to 8.79 ± 0.44.

Regarding “GTCATCATAATCTATTGTACAAAAATTTATACAGAT [XGTACX_site1059]”, the “gcPBM binding intensity (ln)” value was determined as 8.74 ± 0.32.

As for “TATAAAAATAAGTATACACACAAAATGCGTAACTTT [CACACA_site1295]”, the “gcPBM binding intensity (ln)” value was determined as 8.86 ± 0.39.

Regarding “TACATTAAACGAATAGTGCAAGAAGTATTCGTATAA [GTGCAC_site9939]”, the “gcPBM binding intensity (ln)” value amounted to 9.06 ± 0.5.

Take “ATAAATACATTAAAATGTACATAAAAATATTACTGG [XGTACX_site1484]”: the “gcPBM binding intensity (ln)” value is 8.78 ± 0.43.

Consider “CATATGCGTCTTGCCTTGCACACTTTTATGAAAAAA [CACACA_site2055]”, for which the “gcPBM binding intensity (ln)” value worked out at 8.93 ± 0.41.

Regarding “TATAACAAGTAATGGTGTACATTATATTATGTAATA [XGTACX_site2761]”, the “gcPBM binding intensity (ln)” value worked out at 8.87 ± 0.4.

Regarding “TAATACTTAAAATGTTGTACATAATAATTTTATATT [XGTACX_site5403]”, the “gcPBM binding intensity (ln)” value turned out to be 8.39 ± 0.37.

With “TATATATATATATATACATGCATTTCTCATGTACAT [TGCATGCA_site621]”, the “gcPBM binding intensity (ln)” value turned out to be 9.73 ± 0.4.

On to “ATGTACCTTCAAACTACACACAAATGAAGGAACACA [CACACA_site3330]”, for which the “gcPBM binding intensity (ln)” value is 9.15 ± 0.38.

As to “ATCTAATAAAAATACACACACATATGGTTTGTGAAT [CACACA_site6962]”, the “gcPBM binding intensity (ln)” value came to 9.26 ± 0.38.

On to “AAATATTACATACACGCACACATTAAAATATTTAAA [CACACA_site5440]”, for which the “gcPBM binding intensity (ln)” value is 9.13 ± 0.36.

As to “TTAAAAAATCACAACACACACACACGCAAAAAAAAA [CACACA_site6793]”, the “gcPBM binding intensity (ln)” value was found to be 10.1 ± 0.21.

As for “TGTAGTCTGGAGAAGAGTACACAGTATCTGGTAGCT [XGTACX_site2036]”, the “gcPBM binding intensity (ln)” value turned out to be 8.8 ± 0.43.

Consider “AAAAATAACATATAAACACACATATAGATTTATATA [CACACA_site7738]”, for which the “gcPBM binding intensity (ln)” value stood at 8.94 ± 0.37.

For “ATATAGAATGTTTACACACGCAATAAATATATATAT [CACACA_site217]”, the “gcPBM binding intensity (ln)” value stood at 9.14 ± 0.33.

Regarding “ATGGTATAAAAAAATACACACTTATTTATATTCTTA [CACACA_site6370]”, the “gcPBM binding intensity (ln)” value was 8.57 ± 0.5.

Turning to “GCGTATCATTTTAAAACACACAGGATTTTATAAGTA [CACACA_site1225]”, the “gcPBM binding intensity (ln)” value stood at 8.91 ± 0.41.

For the sequence “AATTTTTAGAAGAACACACACATATATATTATGACC [CACACA_site246]”, the “gcPBM binding intensity (ln)” value is 9.19 ± 0.26.

“ATAGGAGAAAAAGAATGTACGTATGATGTTGAAAAT [XGTACX_site7779]”: the “gcPBM binding intensity (ln)” value is 9.19 ± 0.46.

For “ATTATGCACAGACACACACACACACTACTAAAAAAT [CACACA_site7252]”, the “gcPBM binding intensity (ln)” value worked out at 10.2 ± 0.28.

Consider “AAGCATTTTTTTTAAAGCCTGTTCATCATCCTTACC [CACACA_negctrl_site129]”, for which the “gcPBM binding intensity (ln)” value is 8.68 ± 0.6.

As to “AAAAAAAATAAAAATATATATATATATATATAAATA [GTGCAC_negctrl_site676]”, the “gcPBM binding intensity (ln)” value came to 9.16 ± 0.43.

On to AAATAAATAAATAGAGTGCATATATATATATATTTT, for which the “gcPBM binding intensity (ln)” value amounted to 8.99 ± 0.41.

For the sequence “ATATACAAAGGATTAACACACATATTATTATAGATA [CACACA_site6966]”, the “gcPBM binding intensity (ln)” value is 8.89 ± 0.5.

As for “CTTTTTATTTATCATACACACACAGAAAAAAAAAAA [CACACA_site7935]”, the “gcPBM binding intensity (ln)” value was 8.95 ± 0.46.

With “AATATATATATATATATATTTTTGTTAGAATATGGA [CACACA_negctrl_site212]”, the “gcPBM binding intensity (ln)” value was found to be 8.78 ± 0.22.

With “TCTATTAATTAATATACACACATTATATATATATAT [CACACA_site8815]”, the “gcPBM binding intensity (ln)” value was determined as 9.07 ± 0.41.

In the case of “ACCGTGGGAGGACACACACACACACGCACATATATA [CACACA_site6289]”, the “gcPBM binding intensity (ln)” value is 9.99 ± 0.22.

Turning to “AAATAACTTTTAAATACACACGTAAAATATATTGTG [CACACA_site9085]”, the “gcPBM binding intensity (ln)” value came out at 8.81 ± 0.39.
